From article PMC5795388

Key:
Experiment in all cases: cross-link between two proteins; cross-linking mass spectrometry
[1] = target: T1, ATP synthase F(1) complex subunit gamma, mitochondrial (UniProt Q91VR2)
T1 sequence: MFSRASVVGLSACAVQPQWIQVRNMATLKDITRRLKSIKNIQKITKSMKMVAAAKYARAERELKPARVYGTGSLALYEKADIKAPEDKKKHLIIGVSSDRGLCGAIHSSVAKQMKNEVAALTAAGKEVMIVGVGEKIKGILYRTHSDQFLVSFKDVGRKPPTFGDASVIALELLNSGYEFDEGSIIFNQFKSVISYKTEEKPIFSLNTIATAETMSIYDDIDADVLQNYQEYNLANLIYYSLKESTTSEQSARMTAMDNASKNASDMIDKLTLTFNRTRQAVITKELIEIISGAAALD

[2] = target: T2, MICOS complex subunit Mic60 (UniProt Q8CAQ8)
T2 sequence: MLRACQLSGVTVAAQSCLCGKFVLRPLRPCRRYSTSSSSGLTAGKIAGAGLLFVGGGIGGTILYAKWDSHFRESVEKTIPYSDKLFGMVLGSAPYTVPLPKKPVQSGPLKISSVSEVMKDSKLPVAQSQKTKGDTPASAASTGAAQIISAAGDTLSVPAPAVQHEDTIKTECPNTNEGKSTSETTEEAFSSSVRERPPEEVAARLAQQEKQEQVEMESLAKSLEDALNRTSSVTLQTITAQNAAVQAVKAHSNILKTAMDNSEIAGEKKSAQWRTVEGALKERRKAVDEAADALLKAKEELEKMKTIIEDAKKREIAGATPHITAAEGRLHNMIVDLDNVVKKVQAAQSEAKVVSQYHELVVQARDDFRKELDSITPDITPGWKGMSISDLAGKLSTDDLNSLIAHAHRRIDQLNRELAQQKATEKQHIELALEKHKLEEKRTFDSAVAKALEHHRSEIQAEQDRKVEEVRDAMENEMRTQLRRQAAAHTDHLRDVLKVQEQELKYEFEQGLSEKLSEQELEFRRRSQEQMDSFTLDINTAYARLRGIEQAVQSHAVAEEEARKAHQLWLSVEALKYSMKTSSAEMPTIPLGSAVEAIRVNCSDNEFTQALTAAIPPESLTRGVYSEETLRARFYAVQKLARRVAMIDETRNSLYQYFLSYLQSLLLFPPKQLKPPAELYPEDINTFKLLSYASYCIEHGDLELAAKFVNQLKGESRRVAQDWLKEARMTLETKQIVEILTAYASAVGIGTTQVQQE

[3] = target: T3, NADH dehydrogenase [ubiquinone] 1 alpha subcomplex subunit 10, mitochondrial (UniProt Q99LC3)
T3 sequence: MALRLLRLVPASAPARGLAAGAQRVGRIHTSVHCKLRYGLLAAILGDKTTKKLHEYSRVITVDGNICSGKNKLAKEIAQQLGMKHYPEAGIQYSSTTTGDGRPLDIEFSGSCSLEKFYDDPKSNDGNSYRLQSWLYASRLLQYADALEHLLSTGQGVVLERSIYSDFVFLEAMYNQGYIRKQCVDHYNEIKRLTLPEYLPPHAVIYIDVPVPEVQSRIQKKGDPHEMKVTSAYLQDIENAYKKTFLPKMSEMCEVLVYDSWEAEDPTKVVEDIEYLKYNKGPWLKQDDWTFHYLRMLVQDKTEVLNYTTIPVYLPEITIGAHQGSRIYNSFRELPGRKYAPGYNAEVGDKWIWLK

[4] = target: NADH dehydrogenase [ubiquinone] 1 alpha subcomplex subunit 13 (UniProt Q9ERS2)
Sequence of UniProt Q9ERS2 (Q9ERS2 whole entry, one chain of several): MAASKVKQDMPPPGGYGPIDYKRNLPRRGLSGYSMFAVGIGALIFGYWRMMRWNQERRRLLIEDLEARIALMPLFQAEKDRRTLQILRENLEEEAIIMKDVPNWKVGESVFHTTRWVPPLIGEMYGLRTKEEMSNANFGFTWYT

Sequence of ATP synthase F(1) complex catalytic subunit beta, mitochondrial (chain, as listed by the source): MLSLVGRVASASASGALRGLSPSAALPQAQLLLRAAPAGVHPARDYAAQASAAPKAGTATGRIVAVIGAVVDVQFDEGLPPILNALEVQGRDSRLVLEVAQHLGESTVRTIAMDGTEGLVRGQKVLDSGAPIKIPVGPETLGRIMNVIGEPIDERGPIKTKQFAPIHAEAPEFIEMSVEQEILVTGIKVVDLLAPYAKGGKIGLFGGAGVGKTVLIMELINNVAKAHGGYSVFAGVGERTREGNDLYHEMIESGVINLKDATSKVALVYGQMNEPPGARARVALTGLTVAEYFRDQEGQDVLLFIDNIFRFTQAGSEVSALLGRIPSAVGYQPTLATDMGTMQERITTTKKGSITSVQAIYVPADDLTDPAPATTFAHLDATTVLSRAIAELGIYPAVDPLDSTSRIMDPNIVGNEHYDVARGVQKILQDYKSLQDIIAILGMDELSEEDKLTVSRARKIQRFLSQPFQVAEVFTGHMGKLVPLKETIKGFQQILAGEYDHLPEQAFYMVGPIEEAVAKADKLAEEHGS
Sequence of NADH dehydrogenase [ubiquinone] iron-sulfur protein 2, mitochondrial (chain, as listed by the source): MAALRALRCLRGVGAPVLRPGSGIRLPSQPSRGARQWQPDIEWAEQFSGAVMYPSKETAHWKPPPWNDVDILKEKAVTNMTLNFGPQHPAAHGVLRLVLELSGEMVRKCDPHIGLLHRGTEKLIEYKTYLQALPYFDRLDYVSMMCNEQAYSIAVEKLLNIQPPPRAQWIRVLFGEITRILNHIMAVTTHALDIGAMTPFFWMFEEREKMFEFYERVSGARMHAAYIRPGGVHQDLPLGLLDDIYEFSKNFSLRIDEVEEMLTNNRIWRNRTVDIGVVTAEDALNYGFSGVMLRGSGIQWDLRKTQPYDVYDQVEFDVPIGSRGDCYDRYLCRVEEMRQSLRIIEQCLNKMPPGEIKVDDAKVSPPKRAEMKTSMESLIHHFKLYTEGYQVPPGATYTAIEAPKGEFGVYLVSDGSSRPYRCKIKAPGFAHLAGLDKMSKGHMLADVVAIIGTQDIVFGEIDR
Sequence of NADH dehydrogenase [ubiquinone] iron-sulfur protein 3, mitochondrial (chain, as listed by the source): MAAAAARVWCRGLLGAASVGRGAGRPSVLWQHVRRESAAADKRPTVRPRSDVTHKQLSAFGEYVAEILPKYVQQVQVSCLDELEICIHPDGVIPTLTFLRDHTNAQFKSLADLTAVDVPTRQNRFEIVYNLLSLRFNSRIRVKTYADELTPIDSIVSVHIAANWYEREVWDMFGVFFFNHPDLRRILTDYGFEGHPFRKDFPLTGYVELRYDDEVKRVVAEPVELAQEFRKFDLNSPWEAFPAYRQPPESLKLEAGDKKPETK

For “ATP synthase F(1) complex catalytic subunit beta, mitochondrial”, which “listed as a hit” value [1] is on record?
Its value is “yes”.

What about the “listed as a hit” value [2] of the same substance?
Its value is “yes”.

For “NADH dehydrogenase [ubiquinone] iron-sulfur protein 2, mitochondrial”, which “listed as a hit” value [3] is on record?
Its value is “yes”.

For “NADH dehydrogenase [ubiquinone] iron-sulfur protein 3, mitochondrial”, which “listed as a hit” value [4] is on record?
Its value is “yes”.
